The other results are listed elsewhere or left out.
How the values were obtained:
Assay in all cases: glycan array binding signal (z-score within array); higher = stronger binding
Details in all cases: glycan notation: IUPAC condensed, linker removed
Gal6P(b1-4)GlcNAc = molecular target: Gal6P(b1-4)GlcNAc
Procedure, shortened: (§1)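 The Consortium for Functional Glycomics database supplied 3228 glycan arrays, of which those lacking an available protein sequence were dropped. The binding signal, a within-array Z-score, was averaged across arrays of the same protein sequence and across linkers. Negative scores can be read as non-binding.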

Gal6S(b1-3)GlcNAc = molecular target: Gal6S(b1-3)GlcNAc
Procedure, shortened: as §1

Gal6S(b1-3)GlcNAc6S = molecular target: Gal6S(b1-3)GlcNAc6S
Procedure, shortened: as §1

Gal6S(b1-4)Glc = molecular target: Gal6S(b1-4)Glc
Procedure, shortened: as §1

Gal6S(b1-4)Glc6S = molecular target: Gal6S(b1-4)Glc6S
Procedure, shortened: as §1

Gal6S(b1-4)GlcNAc = molecular target: Gal6S(b1-4)GlcNAc
Procedure, shortened: as §1

Gal6S(b1-4)GlcNAc6S = molecular target: Gal6S(b1-4)GlcNAc6S
Procedure, shortened: as §1

GalNAc(a1-3)Gal = molecular target: GalNAc(a1-3)Gal
Procedure, shortened: as §1

GalNAc(a1-3)GalNAc = molecular target: GalNAc(a1-3)GalNAc
Procedure, shortened: as §1

[1] = molecular target: GalNAc(a1-3)GalNAc(b1-3)Gal(a1-4)Gal(b1-4)Glc
Procedure, shortened: as §1

[2] = molecular target: GalNAc(a1-3)GalNAc(b1-3)Gal(a1-4)Gal(b1-4)GlcNAc
Procedure, shortened: as §1

GalNAc(b1-3)Gal = molecular target: GalNAc(b1-3)Gal
Procedure, shortened: as §1

[3] = molecular target: GalNAc(b1-3)Gal(a1-4)Gal(b1-4)GlcNAc
Procedure, shortened: as §1

[4] = molecular target: GalNAc(b1-3)Gal(a1-4)Gal(b1-4)GlcNAc(b1-3)Gal(b1-4)Glc
Procedure, shortened: as §1

[5] = molecular target: GalNAc(b1-3)Gal(a1-6)Gal(b1-4)Glc
Procedure, shortened: as §1

GalNAc(b1-3)GalNAc = molecular target: GalNAc(b1-3)GalNAc
Procedure, shortened: as §1

GalNAc(b1-3)GlcNAc = molecular target: GalNAc(b1-3)GlcNAc
Procedure, shortened: as §1

GalNAc(b1-4)Gal(b1-4)Glc = molecular target: GalNAc(b1-4)Gal(b1-4)Glc
Procedure, shortened: as §1

GalNAc(b1-4)GlcNAc = molecular target: GalNAc(b1-4)GlcNAc
Procedure, shortened: as §1

[6] = molecular target: GalNAc(b1-4)GlcNAc(b1-2)Man
Procedure, shortened: as §1

[7] = molecular target: GalNAc(b1-4)GlcNAc(b1-2)Man(a1-3)[GalNAc(b1-4)GlcNAc(b1-2)Man(a1-6)]Man(b1-4)GlcNAc(b1-4)GlcNAc
Procedure, shortened: as §1

[8] = molecular target: GalNAc(b1-4)GlcNAc(b1-3)GalNAc(b1-4)GlcNAc
Procedure, shortened: as §1

GalNAc(b1-4)GlcNAc6S = molecular target: GalNAc(b1-4)GlcNAc6S
Procedure, shortened: as §1

GalNAc(b1-6)GalNAc = molecular target: GalNAc(b1-6)GalNAc
Procedure, shortened: as §1

GalNAc3S(b1-4)GlcNAc = molecular target: GalNAc3S(b1-4)GlcNAc
Procedure, shortened: as §1

GalNAc3S(b1-4)GlcNAc3S = molecular target: GalNAc3S(b1-4)GlcNAc3S
Procedure, shortened: as §1

[9] = molecular target: GalNAc3S(b1-4)[Fuc(a1-3)]GlcNAc
Procedure, shortened: as §1

GalNAc4S6S(b1-4)GlcNAc = molecular target: GalNAc4S6S(b1-4)GlcNAc
Procedure, shortened: as §1

GalNAc6S(b1-4)GlcNAc = molecular target: GalNAc6S(b1-4)GlcNAc
Procedure, shortened: as §1

Glc(a1-4)Glc = molecular target: Glc(a1-4)Glc
Procedure, shortened: as §1

[10] = molecular target: Glc(a1-4)Glc(a1-4)Glc(a1-4)Glc
Procedure, shortened: as §1

Glc(a1-6)Glc(a1-6)Glc = molecular target: Glc(a1-6)Glc(a1-6)Glc
Procedure, shortened: as §1

[11] = molecular target: Glc(a1-6)Glc(a1-6)Glc(a1-6)Glc
Procedure, shortened: as §1

Glc(b1-4)Glc = molecular target: Glc(b1-4)Glc
Procedure, shortened: as §1

Glc(b1-6)Glc = molecular target: Glc(b1-6)Glc
Procedure, shortened: as §1

GlcA(b1-3)Gal = molecular target: GlcA(b1-3)Gal
Procedure, shortened: as §1

GlcA(b1-3)GlcNAc = molecular target: GlcA(b1-3)GlcNAc
Procedure, shortened: as §1

GlcA(b1-6)Gal = molecular target: GlcA(b1-6)Gal
Procedure, shortened: as §1

B1: Epa15 (Candida glabrata) (protein)
chain: MGSSHHHHHHSSGLVPRGSHMASDPTTFPLGCSPEFTKTKKGLSMELYRYDYLPPGSYPCWDSAYLNPSYPRTGYKAKKLIATVDGVSGDINFKFNPKFGCKAIPDYLPSNFNYHEPITITNFTMILYGYFMPKTTAFHTFYVTADDLLFMNFGAGNAFDCCRREETADKFGNYAAYSVWGKKSLKNELTVYLHTGVYYPIRLFYNNRDYIAQLDIRFKTEHSNAIITNFTDYFYSVDDSSLGCPGLI
glycan array binding signal (z-score) (Gal6P(b1-4)GlcNAc): -0.465
glycan array binding signal (z-score) (Gal6S(b1-3)GlcNAc): 2.78
glycan array binding signal (z-score) (Gal6S(b1-3)GlcNAc6S): 0.488
glycan array binding signal (z-score) (Gal6S(b1-4)Glc): 1.17
glycan array binding signal (z-score) (Gal6S(b1-4)Glc6S): 4.58
glycan array binding signal (z-score) (Gal6S(b1-4)GlcNAc): 1.8
glycan array binding signal (z-score) (Gal6S(b1-4)GlcNAc6S): 10.6
glycan array binding signal (z-score) (GalNAc(a1-3)Gal): -0.394
glycan array binding signal (z-score) (GalNAc(a1-3)GalNAc): -0.348
glycan array binding signal (z-score) [1]: -0.485
glycan array binding signal (z-score) [2]: -0.529
glycan array binding signal (z-score) (GalNAc(b1-3)Gal): -0.245
glycan array binding signal (z-score) [3]: 0.652
glycan array binding signal (z-score) [4]: -0.13
glycan array binding signal (z-score) [5]: -0.334
glycan array binding signal (z-score) (GalNAc(b1-3)GalNAc): -0.576
glycan array binding signal (z-score) (GalNAc(b1-3)GlcNAc): -0.183
glycan array binding signal (z-score) (GalNAc(b1-4)Gal(b1-4)Glc): -0.393
glycan array binding signal (z-score) (GalNAc(b1-4)GlcNAc): -0.222
glycan array binding signal (z-score) [6]: 0.71
glycan array binding signal (z-score) [7]: 0.423
glycan array binding signal (z-score) [8]: 0.149
glycan array binding signal (z-score) (GalNAc(b1-4)GlcNAc6S): 0.285
glycan array binding signal (z-score) (GalNAc(b1-6)GalNAc): -0.579
glycan array binding signal (z-score) (GalNAc3S(b1-4)GlcNAc): -0.521
glycan array binding signal (z-score) (GalNAc3S(b1-4)GlcNAc3S): -0.363
glycan array binding signal (z-score) [9]: -0.141
glycan array binding signal (z-score) (GalNAc4S6S(b1-4)GlcNAc): -0.327
glycan array binding signal (z-score) (GalNAc6S(b1-4)GlcNAc): -0.263
glycan array binding signal (z-score) (Glc(a1-4)Glc): -0.44
glycan array binding signal (z-score) [10]: -0.485
glycan array binding signal (z-score) (Glc(a1-6)Glc(a1-6)Glc): -0.471
glycan array binding signal (z-score) [11]: -0.403
glycan array binding signal (z-score) (Glc(b1-4)Glc): -0.408
glycan array binding signal (z-score) (Glc(b1-6)Glc): -0.464
glycan array binding signal (z-score) (GlcA(b1-3)Gal): -0.333
glycan array binding signal (z-score) (GlcA(b1-3)GlcNAc): -0.315
glycan array binding signal (z-score) (GlcA(b1-6)Gal): 0.801

From the supplement of paper PMC8728848
